From patent US20260167677A1, “ANTI-ADAM10 ANTIBODIES AND USES IN TREATMENT OF CANCER” (Memorial Sloan Kettering Cancer Center, priority 2022, published 2026)

Tests used:
human APP = experiment: Western blot of APP shedding in U2OS cells transfected with human APP; format: cell-based; details: 31 nM to 1 μM
Description: U2OS cells transiently transfected with human APP releases the extracellular portion of APP to the media.
The release of sAPPα in the presence of varying concentrations of IHigG/Fab (31 nM to 1 μM) was evaluated using Western blotting. The Western blots were quantitated using the software Image J and glyceraldehyde 3-phosphate dehydrogenase (GAPDH) as loading control. A vector control was included and U20S cells transfected with APP, but untreated, was used to calculate the fold increase in shedding.

[1] = molecular target: T1, ADAM10 expressed on the cell surface of colon cancer cell lines LIM1215 and COLO205 (Homo sapiens, UniProt O14672); experiment: Cell-based ELISA, binding relative to mAb1427; details: vs ADAM10 endogenously expressed or overexpressed on HEK293
T1 construct: ADAM10 expressed on the cell surface of colon cancer cell lines LIM1215 and COLO205; endogenous in cells; host or cells: LIM1215 and COLO205 cells, paraformaldehyde-fixed
T1 sequence (O14672 214-748): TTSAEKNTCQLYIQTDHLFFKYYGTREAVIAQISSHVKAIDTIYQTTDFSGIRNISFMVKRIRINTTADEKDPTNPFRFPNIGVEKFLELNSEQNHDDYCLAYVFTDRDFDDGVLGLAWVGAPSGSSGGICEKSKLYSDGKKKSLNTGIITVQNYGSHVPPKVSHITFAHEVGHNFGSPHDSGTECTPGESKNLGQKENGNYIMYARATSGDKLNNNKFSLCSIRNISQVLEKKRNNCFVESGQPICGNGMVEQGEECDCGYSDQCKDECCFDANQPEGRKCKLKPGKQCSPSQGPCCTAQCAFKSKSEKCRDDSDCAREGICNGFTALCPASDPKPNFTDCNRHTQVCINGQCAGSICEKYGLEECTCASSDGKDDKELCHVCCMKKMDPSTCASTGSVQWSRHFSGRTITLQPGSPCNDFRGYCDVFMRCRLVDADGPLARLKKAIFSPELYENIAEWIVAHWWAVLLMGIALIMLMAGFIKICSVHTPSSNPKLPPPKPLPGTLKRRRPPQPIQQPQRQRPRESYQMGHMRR
Text: COLO205, as well as HEK293 cells and HEK293 cells transfected with human ADAM10, as described in Example 6. […] Specifically, on the Y axes is plotted the value of:
The data represent triplicate determinations and two independent experiments, mean±SEM; P<0.001 by unpaired two-tailed Student's t-test (cancer cell lines vs HEK293 cells).
The mAb1427 was shown previously to not be conformation specific (Atapattu et al., 2012; Atapattu et al., 2016).
Briefly, 5×10^4 cells/well were immobilized on 96-well ELISA plates (Greiner bio-one) with 1% paraformaldehyde for 2 hours at 37° C. The plate was washed thrice with PBS and blocked for 2 hours at room temperature with 4% non-fat dry milk. The anti-ADAM10 mAbs were added in varying concentrations. […] For the commercial mAb1427 recognizing human ADAM10, goat anti-mouse IgG (H+L) secondary antibody conjugated to HRP was used. The data was recorded at 450 nm.

human ADAM19 D+C = molecular target: T2, human ADAM19 D+C (Homo sapiens, UniProt Q9H013); experiment: ELISA, 1H5 IgG binding to human ADAM19 D+C; details: FIG. 2 Panel E
T2 construct: The human ADAM19 D+C construct (438-646); Fc-tag (C); made in house; host or cells: HEK293 cells (same mammalian expression system)
T2 sequence (Q9H013 438-646): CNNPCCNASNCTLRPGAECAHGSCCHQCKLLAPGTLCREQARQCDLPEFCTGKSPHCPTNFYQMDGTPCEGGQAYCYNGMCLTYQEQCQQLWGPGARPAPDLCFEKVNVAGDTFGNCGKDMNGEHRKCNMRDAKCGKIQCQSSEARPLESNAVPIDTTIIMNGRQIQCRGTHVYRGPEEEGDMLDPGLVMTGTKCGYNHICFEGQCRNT
Text: Panels A-C show characterization of the fully human 1H5 Fab. […] [Lane 1: Low molecular weight standards (Bio-Rad). Lane 2: bead bound murine 8C7 immunoglobulin G (IgG)+ADAM10 D+C. […] Lane 4: bead bound ADAM10 D+C without any pre-bound mAb. Lane 5: ADAM10 D-f-C input]

[2] = test system: xenografted COLO205 cells; experiment: Mouse model of CRC using xenografted COLO205 cells; format: in vivo
Description: For the mouse model, COLO205 cells were grown in monolayer culture, harvested by trypsinization, and implanted subcutaneously into the right flank of 6- to 8-week-old female athymic nude mice. Approximately 10 million cells were injected per mouse. Mice were randomized into 4 groups (each n=4).
Tumor volume was determined by external caliper and calculated by the modified ellipsoidal formula: V=½(Length×Width^2). Antitumor efficacy was calculated as (1-dT/dC)[…], where dT is the final tumor volume minus the starting tumor volume from the treatment group, and dC is the final tumor volume minus the starting tumor volume of the control group (Rios-Doria et al., 2015). Error bars were calculated as SEM. The mouse body weight and general health were monitored daily.
In a second study, 1H5 at two different doses was used in the mouse model. For the mouse model, approximately five million cells were implanted (subcutaneous with Matrigel) into 6- to 8-week-old female athymic nude mice. Mice were randomized into 3 groups (each n=5).

COLO205 = experiment: Alamar blue cell viability assay, COLO205; format: cell-based, human; details: COLO205, 20 μg/ml
Description: (§1) For the Alamar blue cell viability assays, the cells were harvested in the log phase of growth (after 3 days of culturing). The cell count was determined and was adjusted to 5×10^4 cells/ml. […] The cells were allowed to grow for an additional 38 hours. Cells not treated with 1H5 were used as a control. Alamar Blue (10% of the well volume) was added aseptically. Cultures containing Alamar Blue were incubated for 6 hours, and cell proliferation was measured spectrophotometrically by absorbance at 570 and 600 nm. Cell viability was calculated using the following formula:
(§2) O1=molar extinction coefficient (E) of oxidized alamarBlue® (Blue) at 570 nm, O2=E of oxidized alamarBlue® at 600 nm, A1=absorbance of test wells at 570 nm, A2=absorbance of test wells at 600 nm, P1=absorbance of positive growth control well (cells plus AamarBlue® but no test agent) at 570 nm, P2=absorbance of positive growth control well (cells plus AlamarBlue® but no test agent) at 600 nm (O'Brien et al., 2000).

U-87MG = experiment: Alamar blue cell viability assay, U-87MG; format: cell-based; details: 20 μg/ml
Description: as §1, §2

B1: 1H5: fully human anti-ADAM10 antibody clone; heavy chain SEQ ID NO: 14, light chain SEQ ID NO: 15 (antibody)
heavy: QVQLVESGGGLVKPGGSLRLSCAASGFTFSDYYMSWIRQAPGKGLEWVSYISSSGSTIYYADSVKGRFTISRDNAKNSLYLQMNSLRAEDTAVYYCARDFYDSKIFDYWGQGTLVTVSS[human IgG1 constant region left out]
light: DIQMTQSPSSLSASVGDRVTITCRASQSISSYLNWYQQKPGKAPKLLIYAASSLQSGVPSRFSGSGSGTDFTLTISSLQPEDVGVYYCMEGLKTPFTFGPGTKLEIKRTVAAPSVFIFPPSDEQLKSGTASVVCLLNNFYPREAKVQWKVDNALQSGNSQESVTEQDSKDSTYSLSSTLTLSKADYEKHKVYACEVTHQGLSSPVTKSFNRGEC
sAPPα shedding (human APP): increase
binding to ADAM10 on human colon cancer cell lines compared to HEK293 cells [1]: preferentially binds
binding to human ADAM19 D+C (human ADAM19 D+C): but not to
toxicity (mouse weight, visible diarrhea) ([2]; first study): no toxicity effects in animals
tumor growth inhibition ([2]; first study, 1H5 30 mg/kg i.p. biweekly, irinotecan 20 mg/kg i.p. once a week): 54%
tumor growth inhibitory effect ([2]; second study, 10 mg/kg i.p. biweekly): 26%
tumor growth inhibitory effect ([2]; second study, 20 mg/kg i.p. biweekly): 64%
weight of the mice ([2]; second study, both doses (10 and 20 mg/kg)): did not affect the weight of the mice
inhibition (COLO205): 60-70%
inhibition (U-87MG): 60-70%
